Results: PMC4007762
Changes are numbered by the printed parent chain. Names and notes keep the numbering of the source. No constants are given. Whether binding was seen depends on the method and setting. Binding seen in cells or lysates may run through a third protein. Some binding calls cover weakened binding; strength is not graded here. Tags and fused reporters may be left off the sequences shown.

T1: GST–PTP-PEST-C231S fusion protein (catalytically inactive trapping mutant) (UniProt Q05209)
T1 sequence: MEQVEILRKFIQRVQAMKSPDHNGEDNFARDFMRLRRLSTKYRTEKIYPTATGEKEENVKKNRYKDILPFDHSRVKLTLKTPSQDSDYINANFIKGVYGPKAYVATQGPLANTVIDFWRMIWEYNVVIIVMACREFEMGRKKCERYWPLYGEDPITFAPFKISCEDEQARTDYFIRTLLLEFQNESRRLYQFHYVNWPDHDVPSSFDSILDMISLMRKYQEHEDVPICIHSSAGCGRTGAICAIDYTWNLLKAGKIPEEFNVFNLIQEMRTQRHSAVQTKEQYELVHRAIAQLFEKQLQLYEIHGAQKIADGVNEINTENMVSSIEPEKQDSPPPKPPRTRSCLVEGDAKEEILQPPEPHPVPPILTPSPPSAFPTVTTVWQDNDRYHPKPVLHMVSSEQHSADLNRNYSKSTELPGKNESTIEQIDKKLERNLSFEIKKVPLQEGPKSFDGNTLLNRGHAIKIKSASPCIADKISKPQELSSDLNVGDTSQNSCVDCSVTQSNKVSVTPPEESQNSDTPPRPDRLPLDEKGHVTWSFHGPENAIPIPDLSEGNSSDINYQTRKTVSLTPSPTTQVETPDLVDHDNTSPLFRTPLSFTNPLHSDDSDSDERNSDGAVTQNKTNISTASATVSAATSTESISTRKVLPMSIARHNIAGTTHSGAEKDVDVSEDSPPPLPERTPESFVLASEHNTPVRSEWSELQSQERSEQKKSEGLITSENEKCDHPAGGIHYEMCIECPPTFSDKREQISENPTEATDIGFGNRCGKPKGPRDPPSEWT

B1: p120-Y8F (p120-1A with eight tyrosines changed to phenylalanine) (protein, UniProt P30999 1-938)
chain: MDDSEVESTASILASVKEQEAQFEKLTRALEEERRHVSAQLERVRVSPQDANSLMANGTLTRRHQNGRFVGDADLERQKFSDLKLNGPQDHNHLLFSTIPRMQEPGQIVETFTEEDPEGAMSVVSVETTDDGTTRRTETTVKKVVKTMTTRTVQPVPMGPDGLPVDASAVSNNYIQTLGRDFRKNGNGGPGPYVGQAGTATLPRNFHYPPDGYGRHYEDGYPGGSDNFGSLSRVTRIEERYRPSMEGYRAPSRQDVFGPQPQVRVGGSSVDLHRFHPEPFGLEDDQRSMGFDDLDFGMMSDFGTARRTGTPSDPRRRLRSYEDMIGEEVPPDQYYWAPLAQHERGSLASLDSLRKGMPPPSNWRQPELPEVIAMLGFRLDAVKSNAAAYLQHLCYRNDKVKTDVRKLKGIPILVGLLDHPKKEVHLGACGALKNISFGRDQDNKIAIKNCDGVPALVRLLRKARDMDLTEVITGTLWNLSSHDSIKMEIVDHALHALTDEVIIPHSGWEREPNEDCKPRHIEWESVLTNTAGCLRNVSSERSEARRKLRECDGLVDALIFIVQAEIGQKDSDSKLVENCVCLLRNLSYQVHREIPQAERYQEALPTVANSTGPHAASCFGAKKGKDEWFSRGKKPTEDPANDTVDFPKRTSPARGYELLFQPEVVRIYISLLKESKTPAILEASAGAIQNLCAGRWTYGRYIRSALRQEKALSAIAELLTSEHERVVKAASGALRNLAVDARNKELIGKHAIPNLVKNLPGGQQNSSWNFSEDTVVSILNTINEVIAENLEAAKKLRETQGIEKLVLINKSGNRSEKEVRAAALVLQTIWGYKELRKPLEKEGWKKSDFQVNLNNASRSQSSHSYDDSTLPLIDRNQKSDKKPDREEIPMSNMGSNTKSLDNNYSTLNERGDHNRTLDRSGDLGDMEPLKGAPLMQKI
B2: YFP–p120-1A Y334F (protein, UniProt P30999 1-938)
chain: B1 chain with F96Y, F112Y, F228Y, F257Y, F280Y, F291Y, F296Y, F302Y, Y334F
B3: YFP–p120-1A Y217F (protein, UniProt P30999 1-938)
chain: B1 chain with F96Y, F112Y, Y217F, F228Y, F257Y, F280Y, F291Y, F296Y, F302Y

molecular target: T1, GST–PTP-PEST-C231S fusion protein (catalytically inactive trapping mutant); test: pull-down; substrate trapping: 10 µg GST fusion protein with 1 mg lysate of pervanadate-treated transfected cells (HEK 293T named for Fig. 1B and 6B), modified RIPA buffer, 4°C, 1 hour; western blot with anti-YFP; only the target purified

Row | binding | Binder
1 | binds | B1
2 | binds | B2
3 | binds | B3
